Measured values taken from the supplement of paper PMC11417369.
This is one part of the list.

Tested on: PfAP2-HC AP2 domain (GST-tagged)
Experiment: gcPBM binding intensity (ln(normalized median fluorescence intensity)); higher = stronger DNA binding
Summary of the method: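 After 1 h on an Agilent 4 × 180k array of primer-extended double-stranded 36-bp intergenic genomic probes and negative controls, bound GST-tagged P. falciparum DNA-binding domains were detected with Alexa488 anti-GST antibody and scanned at 488 nm. The domains had been expressed in E. coli, and binding took place in 1× PBS with 1% milk, 0.2 mg/ml BSA, 0.5% salmon testes DNA and 0.03% Triton X-100. Binding intensity is the highest Masliner-normalised natural-log median intensity across replicate spots of either probe orientation.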

Sequence | gcPBM binding intensity (ln)
TTAGCAACTATTACTACACACATTTTTATATAACTT [CACACA_site6762] | 9.91
TATTGTTAAAATGAATAATTAAAACAGTAATGAATA [XGTACX_negctrl_site170] | 9.61
TATATATGTTTTTATGTACACACTTTTAACCTAAGA [CACACA_site1149] | 9.67
ATGTCTAATTTTGATGCACACTTTTGTGCAATTAAA [CACACA_site5589] | 9.73
CGCATGCAATGTTAATGTACATATATATATATATGT [XGTACX_site3316] | 9.6
AGGTGCAAAAATAAAACATGCAAAAATAAAAATGAA [TGCATGCA_site502] | 9.86
AATAATTAAATAAGAGTGCATGAAACAGGAAATTTC | 9.94
TAATAAAAAATATATACACACAAATAAATAAATAAA [CACACA_site4037] | 9.9
AATAGTCGTGTGCATACACACCTTAACTATAATATA [CACACA_site6636] | 9.91
ACAGTATCTGGTAGCTGTACGAGTCGTAGAGAGTAG [XGTACX_site2041] | 9.76
ATTCAGTTATATAATACACACATATATTGACATTAT [CACACA_site2723] | 9.82
TATTATATTATGTGATGTACATATTTATATAGGCCC [XGTACX_site4746] | 9.57
ATTTATTGACTATTTACACACATATTTATTAAAATA [CACACA_site4980] | 9.75
TACGCTCCCAGACACACACACACACCGATATAATAT [CACACA_site8098] | 10.7
TATTACATACCTTATTGTACAAATTATATATTAAAG [XGTACX_site7334] | 9.54
TATTATAAAACATTATGTACATATTCTGAAAAATAG [XGTACX_site6577] | 9.58
TATTTCTTATTTATTTTTTAAGGAAATTAAAGATTT [CACACA_negctrl_site258] | 9.24
CAAAATAAAAAATTCACACACATATATATATATATA [CACACA_site2088] | 10.2
AAAACAAATGCTTAAAGTACTTATTATTTTTCTTTT [XGTACX_site6324] | 9.57

Sequence | gcPBM binding intensity (ln)
TTCCTACTATTCAAACGTACAAAATATTTAAATAAT [XGTACX_site700] | 9.42
TAAAAATATCTGTATACACACATATATATATATATA [CACACA_site6042] | 9.76
AAAAAAAAAAAAAAAAGTACAAATCTTTATTTATTA [XGTACX_site3305] | 9.3
ATAATATAATATAAAACACACATATGTACCTTCTAA [CACACA_site2761] | 9.9
CAAGTTCAAAATACAAGGAAGAAACAAAACTTGGCG [GTGCAC_negctrl_site600] | 9.79
TAATATTTCTTATTTTATATTTGTATATGAATGGAT [XGTACX_negctrl_site278] | 9.5
ATATAAATCATTGGTTGTACATATAATATTTTATAA [XGTACX_site925] | 9.49
TATATATCTATATATTGTACATATGTTTGTATGTGT [XGTACX_site7420] | 10.1
TATTTTTACCCATAAAGTACACATAAATATAAAATA [XGTACX_site177] | 9.52
TATGATATCTATAATACACACATATACATAAGATCT [CACACA_site6652] | 9.73
TTATATAAAACATTAACACACAAAGAAAAAAAATTA [CACACA_site1793] | 9.87
TTAATATAACTTTTTGCACACTTAATTTTTTTTTTT [CACACA_site3364] | 10
GCTCAATGTTTTACATGTACATATATATATATATAT [XGTACX_site8210] | 9.83
TATATATTAGAAGATAGTACATATATATTTATTAAT [XGTACX_site1011] | 9.62
TGGTGATCAAAATATACATGCATATGTTCTGTTATT [TGCATGCA_site614] | 9.81
TTTTTTCTTTTCTTTTTATTTTATTTTGTTTTATTT [CACACA_negctrl_site799] | 9.72
AATAAAAACTACATGTGTACATAATAAATACATATA [XGTACX_site755] | 9.92
TAAAAATATTTAAACTGTACTATTTTATGTTAAATG [XGTACX_site6620] | 9.56
ATAATCCAAAAAAATCAAATAAAATAAAATAAAATA [CACACA_negctrl_site449] | 9.5

Sequence | gcPBM binding intensity (ln)
TGAACCAGATTTAGAAGTACTAAATATTACATACAT [XGTACX_site2437] | 9.66
TGTTGCAAAACAAAAAAAAAAAAAAAAAATAATAAT [CACACA_negctrl_site1642] | 9.52
CAGAAATATTAATGCTGTACGGAATACATATATTTT [XGTACX_site539] | 9.62
ATTTTAATGGGACATGCATGGGACAAACTACAAATT [TGCATGCA_site853] | 9.72
AGAATATTTATATGATGTACTTATATATATATATAT [XGTACX_site3021] | 9.71
TATATATTAAAACACACACACATATATATATATATA [CACACA_site3787] | 10.1
AATTTGTAAAATAAGGTGCGTATAAAAAATTATATT [GTGCAC_site9676] | 9.79
ATAAACATCGGTAGTACACACATTCATGTACTTGAT [CACACA_site3037] | 9.84
ATTTAATAAAAAAAAAAAATATTGTAGAATATGATG [GTGCAC_negctrl_site195] | 9.36
CAAATGGTAAATGAAAGTACAAATTGTTTTGATTAA [XGTACX_site1536] | 9.7
ATATACATATTCTTGTGTACATAAAAATTTATATAT [XGTACX_site8726] | 9.72
TATATAAATATTCGTAGTACAATACAATTATAAGTA [XGTACX_site3068] | 9.74
TTTATAATTTTAAAATGTACAAGGAGGAAAAATTCT [XGTACX_site422] | 9.44
TTATATTTTATATTTACACACATTTATATTTATAAA [CACACA_site203] | 9.62
TATATATTTTTTTCAAGTACACATTACAGTTACATA [XGTACX_site2713] | 9.58
ATGTTTTCTCTTTCGGTGCATTGTTTTCTATACTTT [GTGCAC_site9483] | 10.1
ATTCGATGTTTTAAATGTACACAAATTGAAGGAATA [XGTACX_site409] | 9.7
GTATATAATTTTTTTTTTTTTTTCATTCTTTTCCTT [CACACA_negctrl_site1780] | 9.46
